Laboratory results from patent US20160083450A1, “HUMAN PROTEIN SCAFFOLD WITH CONTROLLED SERUM PHARMACOKINETICS” (THE REGENTS OF THE UNIVERSITY OF CALIFORNIA, priority 2009, published 2016).

Experiments:
[1] = tested on: LS174T (CEA-positive) tumor; set-up: species or system athymic nude mice; details: mouse, in vivo
Description: Purified Db-DIII WT, H535A, H510A and H464A were radioiodinated with the positron emitter ^124I (sodium iodide in 0.02 M NaOH; IBA Molecular, Sterling, Va.) using the Iodogen method as previously described (Olafsen et al., 2006). Labeling reactions (0.114-0.130 ml) contained 0.1 mg purified protein and 12.9-18.0 MBq Na^124I. Labeling efficiency was measured by instant thin layer chromatography (ITLC) using the monoclonal antibody ITLC strips kit (Biodex Medical Systems, Shirly, N.Y.), as previously described (Olafsen et al., 2006).
(§1) For in vivo studies, 7 to 8 week old athymic nude mice (Charles River Laboratories, Wilmington, Mass.) were injected subcutaneously in the left shoulder region with 1-5×10^6 CEA-positive LS174T human colon carcinoma cells (American Type Culture Collection, Manassas, Va.) and in the right shoulder area with approximately the same number of CEA-negative C6 rat glioma cells (ATCC). Tumor masses were allowed to develop for an average of 10 days and reached a maximum of 200 mg weight. […] At five different time points (4 h, 20 h, 28 h, 44 h and 51 h), the injected mice were anesthetized using 2% isoflurane, placed on the bed, and imaged for 10 min. A 10 min CT scan was completed following the final PET scan at 51 h. All imaging experiments utilized the Focus 220 small animal PET (Siemens Preclinical Solutions, Knoxville, Tenn.) and the small animal CAT II (Concorde Microsystems, Knoxville, Tenn.) scanners. Following the last scan (51 h), mice were euthanized. Blood, tumors (LS174T and C6), liver, spleen, kidneys, lungs and carcass were collected, weighed, and counted in a Wallac WIZARD Automatic Gamma Counter (PerkinElmer Life and Analytical Sciences Inc., Wellesley, Mass.). After decay correction, the percent injected dose per gram (% ID/g) for each tissue/organ was calculated, incorporating a correction for the labeling efficiency of each protein and a standard error (SE).

[2] = set-up: species or system athymic nude mice; details: mouse, in vivo
Description: as §1
(§2) The same color threshold was applied to all images. Regions of interest (ROI; ellipsoid, 0.4 mm depth, n=4) were drawn in the area of the CEA-positive tumor and in a low-activity, soft tissue region of the lower body (muscle). Tumor-to-soft tissue (T:ST) ratios were determined for individual mice and averaged for each time point and construct. ROIs (n=4) were drawn over the heart on each image and % ID/g of blood was calculated by the AMIDE software after entering the injected dose in MBq and cylinder factor in MBq/cc/image units as input functions. The ADAPTII software package was used to calculate the mean residence time (MRT) of each protein from its blood activity curve (D′argenio and Schumitzky, 1979). SE was calculated for all ratios and % ID/g values, and expressed graphically (error bars). All T:ST ROI ratios and blood activity curves, respectively, were compared for significant difference using an unpaired Student t test. A 2-tailed P value of less than or equal to 0.05 was considered statistically significant.

[3] = tested on: LS174T (CEA-positive) tumor; experiment: Serial small animal PET/CT imaging of 124I-labeled Db-DIII proteins and Db: tumor targeting, tumor-to-soft tissue ROI ratios; format: in vivo, athymic nude mice; details: for T:ST ROI ratio compared to the WT: 51 h; for Time at which tumor targeting was noted (as early as): PET images, LS174T tumor
Description: as §1, §2

| Molecule | Blood [1] [% ID/g] | Carcass [1] [% ID/g] | Kidneys [1] [% ID/g] | Liver [1] [% ID/g] | Lungs [1] [% ID/g] | Spleen [1] [% ID/g] | Radioactivity (% ID/g) remaining in blood, fold higher than that for the Db injected mice ([1]; 51 h) [fold] | Blood AUC [2] | First Mo (first moment) [2] [h] | MRT (mean residence time) [2] [h] | T:ST ROI ratio compared to the WT [3] | Time at which tumor targeting was noted (as early as) [3] [h] | Blood clearance / persistence, statistical comparison of blood activity curves [2] |
| --- | --- | --- | --- | --- | --- | --- | --- | --- | --- | --- | --- | --- | --- |
| Db-DIII H464A: fusion protein of anti-CEA diabody and HSA DIII with H464 mutated to alanine (protein) scFv-DIII 1: DIVLTQSPASLAVSLGQRATMSCRAGESVDIFGVGFLHWYQQKPGQPPKLLIYRASNLESGIPVRFSGTGSRTDFTLIIDPVEADDVATYYCQQTNEDPYTFGGGTKLEIKGGGSGGGGEVQLQQSGAELVEPGASVKLSCTASGFNIKDTYMHWVKQRPEQGLEWIGRIDPANGNSKYVPKFQGKATITADTSSNTAYLQLTSLTSEDTAVYYCAPFGYYVSDYAMAYWGQGTSVTVSSGSTSGSGKPGSGEGSTS[letters of about 200 residues with changes omitted] scFv-DIII 2: DIVLTQSPASLAVSLGQRATMSCRAGESVDIFGVGFLHWYQQKPGQPPKLLIYRASNLESGIPVRFSGTGSRTDFTLIIDPVEADDVATYYCQQTNEDPYTFGGGTKLEIKGGGSGGGGEVQLQQSGAELVEPGASVKLSCTASGFNIKDTYMHWVKQRPEQGLEWIGRIDPANGNSKYVPKFQGKATITADTSSNTAYLQLTSLTSEDTAVYYCAPFGYYVSDYAMAYWGQGTSVTVSSGSTSGSGKPGSGEGSTS[letters of about 200 residues with changes omitted] | 1.56 | 0.28 | 0.58 | 0.44 | 0.85 | 0.50 | 20 | 354 | 24 | 17 | significantly higher T:ST ratios compared to the WT | 4 | – |
| Db-DIII H535A: fusion protein of anti-CEA diabody and HSA DIII with H535 mutated to alanine (protein) scFv-DIII 1: DIVLTQSPASLAVSLGQRATMSCRAGESVDIFGVGFLHWYQQKPGQPPKLLIYRASNLESGIPVRFSGTGSRTDFTLIIDPVEADDVATYYCQQTNEDPYTFGGGTKLEIKGGGSGGGGEVQLQQSGAELVEPGASVKLSCTASGFNIKDTYMHWVKQRPEQGLEWIGRIDPANGNSKYVPKFQGKATITADTSSNTAYLQLTSLTSEDTAVYYCAPFGYYVSDYAMAYWGQGTSVTVSSGSTSGSGKPGSGEGSTS[letters of about 200 residues with changes omitted] scFv-DIII 2: DIVLTQSPASLAVSLGQRATMSCRAGESVDIFGVGFLHWYQQKPGQPPKLLIYRASNLESGIPVRFSGTGSRTDFTLIIDPVEADDVATYYCQQTNEDPYTFGGGTKLEIKGGGSGGGGEVQLQQSGAELVEPGASVKLSCTASGFNIKDTYMHWVKQRPEQGLEWIGRIDPANGNSKYVPKFQGKATITADTSSNTAYLQLTSLTSEDTAVYYCAPFGYYVSDYAMAYWGQGTSVTVSSGSTSGSGKPGSGEGSTS[letters of about 200 residues with changes omitted] | 2.04 | 0.33 | 0.75 | 0.67 | 0.91 | 0.63 | – | 470 | 66 | 25 | significantly higher T:ST ratios compared to the WT | 20 | significantly longer blood persistence, compared to the H464A variant |
| Db-DIII H510A: fusion protein of anti-CEA diabody and HSA DIII with H510 mutated to alanine (protein) scFv-DIII 1: DIVLTQSPASLAVSLGQRATMSCRAGESVDIFGVGFLHWYQQKPGQPPKLLIYRASNLESGIPVRFSGTGSRTDFTLIIDPVEADDVATYYCQQTNEDPYTFGGGTKLEIKGGGSGGGGEVQLQQSGAELVEPGASVKLSCTASGFNIKDTYMHWVKQRPEQGLEWIGRIDPANGNSKYVPKFQGKATITADTSSNTAYLQLTSLTSEDTAVYYCAPFGYYVSDYAMAYWGQGTSVTVSSGSTSGSGKPGSGEGSTS[letters of about 200 residues with changes omitted] scFv-DIII 2: DIVLTQSPASLAVSLGQRATMSCRAGESVDIFGVGFLHWYQQKPGQPPKLLIYRASNLESGIPVRFSGTGSRTDFTLIIDPVEADDVATYYCQQTNEDPYTFGGGTKLEIKGGGSGGGGEVQLQQSGAELVEPGASVKLSCTASGFNIKDTYMHWVKQRPEQGLEWIGRIDPANGNSKYVPKFQGKATITADTSSNTAYLQLTSLTSEDTAVYYCAPFGYYVSDYAMAYWGQGTSVTVSSGSTSGSGKPGSGEGSTS[letters of about 200 residues with changes omitted] | 1.77 | 0.40 | 0.53 | 0.54 | 0.98 | 0.58 | – | 528 | 38 | 20 | significantly higher T:ST ratios compared to the WT | 20 | – |
